The record followed here is publication PMC4336329 (PLoS ONE, 2015).

About 2,200 (0.71%) of roughly 310,000 compounds showed an effect of 50% or more. The effect is printed as a negative number. The list shows a part of the results.

human ether-à-go-go-related gene (hERG) potassium channel, sequence (Q12809 whole entry, looked up): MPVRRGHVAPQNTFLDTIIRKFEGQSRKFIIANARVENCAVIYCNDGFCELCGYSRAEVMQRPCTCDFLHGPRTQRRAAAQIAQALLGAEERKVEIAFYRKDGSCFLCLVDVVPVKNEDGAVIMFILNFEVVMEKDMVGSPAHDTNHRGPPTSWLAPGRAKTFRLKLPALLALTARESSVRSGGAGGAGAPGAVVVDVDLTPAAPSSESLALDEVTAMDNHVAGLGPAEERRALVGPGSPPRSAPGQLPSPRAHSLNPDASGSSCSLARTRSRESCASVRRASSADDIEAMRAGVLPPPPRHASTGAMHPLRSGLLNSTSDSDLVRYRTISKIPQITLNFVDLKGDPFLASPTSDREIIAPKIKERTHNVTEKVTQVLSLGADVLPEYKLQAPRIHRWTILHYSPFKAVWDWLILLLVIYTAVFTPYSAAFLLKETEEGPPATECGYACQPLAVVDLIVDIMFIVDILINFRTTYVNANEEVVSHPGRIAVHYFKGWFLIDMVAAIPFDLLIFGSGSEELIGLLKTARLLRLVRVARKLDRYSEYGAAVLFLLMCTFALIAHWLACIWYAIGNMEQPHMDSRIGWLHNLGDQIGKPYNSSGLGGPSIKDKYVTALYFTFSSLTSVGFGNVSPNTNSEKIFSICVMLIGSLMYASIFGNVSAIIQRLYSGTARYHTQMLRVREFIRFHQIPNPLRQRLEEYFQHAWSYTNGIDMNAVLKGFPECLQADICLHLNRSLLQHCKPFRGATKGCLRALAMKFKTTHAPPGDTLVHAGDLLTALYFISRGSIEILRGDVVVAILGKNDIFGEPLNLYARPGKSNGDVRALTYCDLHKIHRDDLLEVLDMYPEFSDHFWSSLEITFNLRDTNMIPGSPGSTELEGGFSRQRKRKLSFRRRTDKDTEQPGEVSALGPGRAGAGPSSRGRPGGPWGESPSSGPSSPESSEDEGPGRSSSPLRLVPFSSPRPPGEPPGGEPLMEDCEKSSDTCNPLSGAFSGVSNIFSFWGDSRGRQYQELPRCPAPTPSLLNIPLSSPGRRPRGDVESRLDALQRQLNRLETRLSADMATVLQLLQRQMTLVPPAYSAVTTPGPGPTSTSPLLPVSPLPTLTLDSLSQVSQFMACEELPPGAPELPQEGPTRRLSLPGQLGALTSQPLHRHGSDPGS

The assay concerns the target human ether-à-go-go-related gene (hERG) potassium channel (human, UniProt Q12809). In words: primary screen, population patch clamp on CHO cells stably expressing hERG.
Consider `O=C(Nc1nccs1)c1ccc(S(=O)(=O)N2CCCCC2)cc1`, for which the “hERG current change (%, negative = inhibition) at 1uM” value worked out at 12.7%.
In the case of `Cc1cc(C)cc(NC(=S)Nc2ccc(Cl)c(Cl)c2)c1`, the “hERG current change (%, negative = inhibition) at 1uM” value was 8.43%.
Under `CNC(=O)CC(CC(=O)c1ccccc1)c1ccccc1` (stereo not drawn) stands 14.9%; under `C#CCOCCOCCOCCNc1nc(N2CCN(C(=O)[C@H](CCC(=O)O)n3cc(C(N)CO)nn3)CC2)nc(N2CCN(C(=O)[C@H](Cc3ccc(O)cc3)n3cc(C(N)[C@H](C)CC)nn3)CC2)n1.Cl` (stereo partly drawn), 5.62%.
The result for `CCCC[n+]1ccn(-c2nc3c([N+](=O)[O-])cccc3n2C)c1.[I-]` reads 12.2%.
Under `O=C(NCc1cccs1)c1nc2c(nnn2Cc2ccc(F)cc2)c(=O)[nH]1` stands -7.69%; under `Cc1ccc(C(=O)N/C(=C/c2cccs2)C(=O)N2CCCCCC2)cc1`, -13.9%.
Consider `COc1ccc2[nH]c(=O)c(CN(C(=O)NC3CCCCC3)C3CCCCC3)cc2c1`, for which the “hERG current change (%, negative = inhibition) at 1uM” value is listed as -1.05%.
The result for `CCc1c(O)c(/C(C)=N\O)c(=O)n(-c2ccccc2)c1-c1ccccc1` reads 8.81%; that for `Cc1cccc(C(=O)Nc2ccc(C(=O)N/N=C/c3ccc(C)o3)cc2)c1`, 10.9%; that for `Cc1ccc(C(=O)OCC(=O)NC2CC2)cc1S(=O)(=O)N1CCOCC1`, 16.7%.
Regarding `CCn1c(CNC(=O)c2ccco2)nnc1SCC(=O)c1ccccc1`, the “hERG current change (%, negative = inhibition) at 1uM” value was 9.19%.
The result for `O=C(CSc1ncnc2c1oc1ccccc12)Nc1cccc(C(F)(F)F)c1` reads 13.5%; that for `CCCOc1ccc(-c2nnn(CC(=O)c3ccc4c(c3)OCCO4)n2)cc1`, 12%; that for `COCC1CCN(Cc2cn[nH]c2-c2ccc(OC)c(F)c2)C1` (stereo not drawn), 3.17%.
The result for `COc1ccc(C(=O)C[n+]2ccc3c(c2)nnn3-c2ccccc2)cc1.[Br-]` reads -12%.
Under `Cc1ccc(-c2noc(C3CCCN(C(=O)c4cccc(Cl)c4)C3)n2)o1` (stereo not drawn) stands -7.5%; under `C=CCNC(=O)c1ccc(C)cc1Cl`, -6.83%.
On to `COc1ccc(CN(C(=O)CNC(=O)c2ccco2)C(C(=O)NCC2CCCO2)c2ccc(OC)c(OC)c2)cc1` (stereo not drawn), for which the “hERG current change (%, negative = inhibition) at 1uM” value stood at 9.92%.
Under `O=C(O)C1C2CCC(O2)C1C(=O)Nc1ccc(F)c(Cl)c1` (stereo not drawn) stands 22.8%.
The result for `CN1CCN(C(=O)C2C3C=CC(C3)C2C(=O)O)CC1` (stereo not drawn) reads 5.05%; that for `CNC(=S)N(Cc1cccs1)Cc1cc2cc(OC)c(OC)cc2[nH]c1=O`, 1.23%; that for `COc1ccc(C(=O)n2nc(C)cc2Nc2ccccc2)cc1`, 12.7%.
The result for `C[C@@H]1CCC[C@@]2(O[C@@H](CCO)C[C@@H](O)[C@@H]2O)O1` reads 7.36%; that for `COc1ccc(-c2ccc(CCC(=O)O)n2-c2ccccc2O)cc1`, 13.7%; that for `CCc1ccc(Oc2ncnc(N)c2[N+](=O)[O-])cc1`, 10.8%.
`O=c1[nH]c(-c2cccnc2)nc2sc(-c3ccccc3)cc12`: the “hERG current change (%, negative = inhibition) at 1uM” value is reported as 8.73%.
Turning to `COc1ccc(-c2ccc(OC)cc2C(=O)O)cc1`, the “hERG current change (%, negative = inhibition) at 1uM” value came out at 2.93%.
The result for `CCN1CCc2c(sc(NC(=S)NC(=O)c3ccc(Cl)cc3)c2C(N)=O)C1` reads 0.909%; that for `Cc1ccc(-n2cc(-c3ccccc3)c3c(NN4CCOCC4)ncnc32)cc1`, 6.63%; that for `CCOC(=O)c1cccc(NC(=O)c2ccc3c(c2)C(=O)N(CC2CCCO2)C3=O)c1` (stereo not drawn), -2.27%.
Under `COc1cccc(NC(=O)COC(=O)c2nc(Cl)ccc2Cl)c1` stands 17.6%; under `O=C(c1ccc(CS(=O)(=O)c2ccc(Br)cc2)o1)N1CCN(c2ccccn2)CC1`, -8.42%.
Under `CCN(CC)C(=O)C(=O)Nc1ccc(F)c(Cl)c1` stands 11.7%.
On to `Nc1nonc1C(=O)NCCNS(=O)(=O)c1ccc(F)cc1`, for which the “hERG current change (%, negative = inhibition) at 1uM” value is recorded as 11.5%.
In the case of `CC1=C(C(=O)OCc2ccccc2)C(c2ccsc2)C(C#N)=C(N)O1` (stereo not drawn), the “hERG current change (%, negative = inhibition) at 1uM” value is given as -5.08%.
The result for `CC1(c2nnc(-c3ccc(F)cc3)o2)CC(c2c(Cl)cccc2Cl)=NO1` (stereo not drawn) reads -4.95%; that for `COc1ccc(C(=O)CCNc2ccc(C)c(Cl)c2)cc1`, -2.3%; that for `Brc1ccc(COc2cccc3cccnc23)cc1`, 9.22%.
The result for `CCOC(=O)N1CCN(C(=O)/C=C/c2ccc(OC)cc2)CC1` reads -0.69%.
In the case of `CCNC(=O)c1sc(=S)n(CC)c1N`, the “hERG current change (%, negative = inhibition) at 1uM” value worked out at 4.57%.
Under `CC(=O)c1ccc2c(ccc3ccccc32)c1` stands 20.6%.
The result for `Cc1cc(N/C(=N/S(=O)(=O)c2ccc(F)cc2)c2ccccc2)n(-c2ccccc2)n1` reads 12.9%.
The result for `C[C@H]1O[C@H](O[C@H]2[C@H](O)[C@@H](O)[C@@H](O[C@H]3[C@H](O)[C@@H](O)C(O)O[C@@H]3CO)O[C@@H]2CO)[C@H](O)[C@@H](O)[C@@H]1N[C@H]1C=C(CO)[C@@H](O)[C@H](O)[C@H]1O` (stereo partly drawn) reads 1.89%; that for `COC(=O)COc1ccc(S(=O)(=O)NCCC2=CCCCC2)cc1`, 12.4%.
With `CCCc1nc(SCC(=O)N2CCN(c3ccccc3)CC2)c2c(=O)n(C)c(=O)n(C)c2n1`, the “hERG current change (%, negative = inhibition) at 1uM” value was 8.48%.
In the case of `COC(=O)c1ccc(Sc2ccc(F)cc2)c(N)c1`, the “hERG current change (%, negative = inhibition) at 1uM” value turned out to be 5.18%.
Consider `COc1ccc(NC(=O)C2=Cc3ccccc3OC2)cc1`, for which the “hERG current change (%, negative = inhibition) at 1uM” value is 10.4%.
The result for `CSc1ccc2[nH]c(=O)cc(C)c2c1` reads 3.93%; that for `O=C(NC1CCCCC1)c1ccc(NS(=O)(=O)c2cccc3cccnc23)cc1`, 12.5%; that for `COc1ccc(NC(=O)Cn2c(=O)n(CC(=O)NCc3ccco3)c(=O)c3ccccc32)cc1`, 18.5%.
The result for `COC(=O)CSC1=C(C#N)C(c2ccc(Cl)cc2)C(C(=O)OC)C(=O)N1` (stereo not drawn) reads 7.42%.
Under `O=C(Nc1cccc(F)c1)N1CCCCCC1` stands 12%; under `Br.c1ccc(C2CNCc3c2ccc2ccccc32)cc1` (stereo not drawn), 1.84%; under `Cc1ccccc1NC(=O)c1cccc(NC(=O)c2ccccc2C(=O)O)c1`, 14.3%.
As to `COc1cccc(/C=C/c2[nH]c(=O)[nH]c(=O)c2[N+](=O)[O-])c1O`, the “hERG current change (%, negative = inhibition) at 1uM” value is given as 0.313%.
Under `COc1ccc(-c2cn(Cc3ccc(C(=O)NCc4ccc(C)cc4)cc3)c(C(C)N)n2)cc1` (stereo not drawn) stands 7.87%; under `N#C/C(=C\c1cn(Cc2ccc(C#N)cc2)c2ccccc12)C(=O)NCc1cccs1`, 13.5%; under `COc1cccc(C(=O)c2cc3ccc(O)cc3oc2=O)c1`, -18.3%.
Under `CC(NC(=O)c1ccc2c(c1)OCCO2)C(=O)O` (stereo not drawn) stands 2.86%; under `Cl.Clc1cccc(Nc2nc(N3CCOCC3)nc(N3CCOCC3)n2)c1`, 7.49%; under `O=C(Nc1ccc(Oc2ccccc2)nc1)C1CCCCN1Cc1ccco1` (stereo not drawn), -5.22%.
The result for `CCN(CC)C(=O)Cn1nc(-c2ccncc2)nc1SCC(=O)Nc1ccc(OC)cc1` reads 13.2%; that for `CCN(CC)CCn1c2c(c(SCC(=O)Nc3ccccc3Cl)nc1=O)CCCC2`, -24.9%; that for `Cc1ccc2c(CC(=O)N3CCN(S(=O)(=O)c4cccs4)CC3)coc2c1`, 11.1%.
In the case of `COC(=O)C(NC(=O)CCC(=O)N[C@@H](C(=O)OC)c1ccccc1)c1ccccc1` (stereo partly drawn), the “hERG current change (%, negative = inhibition) at 1uM” value is 12.4%.
The result for `CCCCN(C(=O)c1cnc2n(c1=O)CCS2)c1ccccc1` reads 14.9%; that for `Cc1cc2ccccc2nc1SCC(=O)N1CCCC1`, 1%.
The result for `COc1ccc(/C=N/N2CCN(c3ccccc3OC)CC2)cc1OC` reads -0.622%.
Consider `Cc1cc(C)c(NC(=O)C2CC(=O)N(C(C)C)C2)c(C)c1` (stereo not drawn), for which the “hERG current change (%, negative = inhibition) at 1uM” value is 12.1%.
The result for `CCN(C(=O)COC(=O)c1ccc(OC)c(S(=O)(=O)N(C)Cc2ccccc2)c1)C1CCS(=O)(=O)C1` (stereo not drawn) reads 13%; that for `CCOc1ccccc1NC(=O)CCNS(=O)(=O)c1ccc(NC(C)=O)cc1`, -0.647%; that for `Cc1ccsc1/C=N/NC(=O)Cc1ccc([N+](=O)[O-])cc1`, 15.6%.
Under `Cc1nnc(SCC(=O)Nc2nccs2)n1C(C)C` stands 8.55%.
The result for `COCCN=c1scc(-c2cc(OC)ccc2OC)n1/N=C/c1c[nH]c2ccccc12` reads 3.15%; that for `O=C(Nc1ccc(F)cc1)N1CCOCC1`, 19.8%; that for `CC(Cl)C(=O)NNC(=O)CNS(=O)(=O)c1ccccc1` (stereo not drawn), -0.449%.
For `O=C1[C@H]2[C@H](C=CC[C@H]2C(=O)N2CCN(c3ccccc3)CC2)CCN1Cc1ccccc1`, the “hERG current change (%, negative = inhibition) at 1uM” value came out at 9.8%.
On to `CCN1C(=O)/C(=C2/Sc3ccc(OC)cc3N2C)SC1=Nc1ccc(OC)cc1`, for which the “hERG current change (%, negative = inhibition) at 1uM” value turned out to be 17%.
On to `CN(C)S(=O)(=O)c1ccc(Cl)c(NC(=O)COC(=O)/C=C/c2ccc3ccccc3n2)c1`, for which the “hERG current change (%, negative = inhibition) at 1uM” value is given as 4.83%.
Under `CCOP(=O)(OCC)c1nc(-c2cccc3ccccc23)oc1NCCc1ccc(OC)cc1` stands 8.58%.
Under `COC(=O)CN1C(=O)[C@@H]2[C@H](C1=O)[C@@H]1CC(C(=O)OC)=C[C@@H](C(=O)OC)[C@@H]3C1=C(C(=O)[C@]3(C)NC(=O)c1ccccc1)[C@@H]2C` stands 14.9%; under `CC(=O)c1cccc(CN2CCN(Cc3ccc(F)cc3)C(CCO)C2)c1` (stereo not drawn), 3.3%.
Under `CCCNC(=O)c1onc(CSc2nc3ccccc3[nH]2)c1C(=O)NCCC` stands -1.04%.
